# Assay results: article PMC10726135
# This is one part of the list. At the low end of the ranking the order means little. Measured with an extract: partners may take part in the binding.
# Molecular target: T1, HNF4alpha8 (COS-7 nuclear extract) (UniProt P41235-5)
# T1 sequence: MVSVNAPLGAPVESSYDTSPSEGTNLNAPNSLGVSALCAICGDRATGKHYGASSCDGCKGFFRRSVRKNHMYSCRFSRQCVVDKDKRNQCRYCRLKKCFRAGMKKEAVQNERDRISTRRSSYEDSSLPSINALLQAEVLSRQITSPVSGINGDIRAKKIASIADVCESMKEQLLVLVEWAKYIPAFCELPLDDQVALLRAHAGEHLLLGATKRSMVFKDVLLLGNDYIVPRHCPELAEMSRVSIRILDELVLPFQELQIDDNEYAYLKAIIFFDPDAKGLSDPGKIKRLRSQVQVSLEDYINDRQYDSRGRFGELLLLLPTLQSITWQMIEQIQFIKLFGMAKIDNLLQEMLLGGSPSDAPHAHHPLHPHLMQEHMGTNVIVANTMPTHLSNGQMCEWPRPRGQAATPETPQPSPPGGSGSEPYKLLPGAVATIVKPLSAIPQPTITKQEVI
# Assay: protein-binding microarray
# Settings: COS-7 nuclear extract on double-stranded Agilent 4x180k PBM; binding buffer, salt, pH and temperature not given; high values mean tight binding; double strand, one strand shown; sequences stand for … in …GCCTAGGGAGATTAGAGTATCGGTCGA
row,Sequence,binding signal (log2 normalized intensity)
1,TGTTTGAATTGTGATAATAAATGTGTTTCA,1.78
2,TACCTGCCTGAGCTATCTGTTTGAGGTTCA,1.73
3,GGCTAAAGATAACCTAGAAAGGAGAGATCA,-1.36
4,TTATCTTCCTCTGGCATCTGGTCAGGGGTC,4.13
5,TACCTTTCCTGCATTAACATCAACATGGAC,2.03
6,TTCAATTATTTACTTTAGTTAGAGTCACTG,-0.288
7,TTGGGCTGTGTTTTGCCCCTGCAGAGTTTT,2.45
8,GCATTCCACATTCTCCACTGGGAAGTAGAA,-1.05
9,GCTTCCAAGGGGAATGTGGATGCTGGAATG,-0.389
10,AGAGGAAAGATGGGGATATAATCATTCATG,-1.43
11,TAAAAATGCCTTTCATCTTTGAGAAAACTC,-1.2
12,CAGGAGTCGGGAGGTAGGGGTGGCGGGTTG,0.403
13,AGTTCCAATAGCAAAACCTGATGTTTGGAC,2.24
14,AGAGGCCTTTGTGCTGACTAAGAGGAGAAG,-1.42
15,CTTGTCCTTGACCCTTCCTCCCATTTGCTG,2.59
16,GACTGCGCTCCCAGAAGCCTCCGGTGTACC,-0.536
17,GTGAGTAGGTTAGATAGGAATCTGGATGGC,-1.11
18,GAGAGTTGCACCCAGGCCGTTGGACCAAGC,0.782
19,GCAGAAAGGGCATGGATTTAGATAAGAGGC,-1.16
20,GTCCCTGGATTGTGTTGCACTGTTTGCATA,1.14
21,AAAAGATGGAACAAGCCAGGTGTGCAGAGA,-1.29
22,ACTCCCTGACGCCATCTGGCGTCCCCCACC,4.39
23,TAGCTTTCCCACCAAACCTGAAAAACCTCT,-1.18
24,TCTTTGCCCCATAACCACCATTAGACTCTG,2.61

row,Sequence,binding signal (log2 normalized intensity)
1,CCTTAGGCGAATGTCAAAGGTCTTTGGTGG,2.95
2,TGAGCTGCTTTGGGTGGATTTGGAGATCAG,0.669
3,GGCTCACAGAGAGGCTTCTGGCCAGGCAGA,-1.29
4,CAACACTTAGGGTGGATACTTTGACTGAGA,-0.98
5,GTTATCTCTGCTGATAGCATAAAGCTAGGA,-1.31
6,GATCAAAGGTTGGTTTTTGGAGACAGGAGT,3.24
7,TAGCATGAACTACACAGATTCTGCAAACCT,-1.22
8,AGAGGAAGATATTATCTCTGTCTGTCAAGG,0.709
9,ATAAAGGGTGAGTGCATGAATCAACTGTTG,0.0235
10,CCCTGTCTCTCAGTCTCTGTGGGAGAGTAA,1.26
11,CCCATTTTATGGGCTAACGCTGCTGTCTGT,0.508
12,TTGAAAGTTTGGTGGACTTTGGCCGTGAAG,7.64
13,GCCCTGGTCTCTGCTACCTGTAGCTGAGGG,-1.31
14,TTGCAAAGCAACTCCTCTGTACAGCTCTTG,-1.29
15,CCCAGAGCGGCAGCGCCTCCCGGTCACTAC,-1.31
16,TGAGCCCAATCTAGCAAAAATCCTGCCAAA,-1.12
17,CAACAGGTGTTAAAATAACGACCTTTGGGC,6.57
18,AGGTCACAGTAGGGAAAGTGGGGGGAAAGA,-1.05
19,TGACAACTGAATGTGACCTTTTGGACCACA,7.4
20,TATCTGTCCATCCCTCACTCCTGTCTTACC,0.0552
21,CACTGGCTCTGGGGTCAAAGTCCCCTGAGC,7.66
22,CTGCAACCTGAGTGCCAGAGCTGTGAAGAC,-1.4
23,CTTTGCTCTCCCTCCTCTCTGAGCAGTCAA,-1.24
24,AAGATGTACCATTCATGGACAGCCTTGCCA,-1.22

row,Sequence,binding signal (log2 normalized intensity)
1,GGAGCACCACGGTTTATTTTTATCTGTTTA,0.3
2,TTCATGTGTGGTGCAGATTCCACACTGGCT,-1.05
3,GACTTTGATCTTGCTGCTCTCGCCTGGAAG,-1.45
4,ATTTTCAGCCACCTTTATCTGATCAGAAAT,0.595
5,TGACTGGAGCAGAGCGATCAAAGGTCACAG,7.44
6,CCAGGTAACTTTTGTCTCTGGAGGGATCAG,0.587
7,GTTAGTGCTGCCTCTTCTGGGAAGAGTAGA,-1.29
8,TATCATCCACATATTTTCCCTATCTAGCCA,-1.22
9,CTTCTCTGGGAGAAAGGGAGGCAGGTGAGC,-1.34
10,CAAGAATGCAAAGCCCTGGCTGACCTTTAG,5.88
11,ATCAGAGAGTTCAAACTCTGAAGTTGTAAA,0.953
12,ACGCCCGGCCAAAGACCACATTCTTTTAGT,-1.15
13,TGGTTCCATTGTCCTACAGGACATTAATCA,0.85
14,AGTTCCTGTGCAAGCCCCTGACCAAGGGTC,4.15
15,CCCCTTTGAACTCTGAATAACTGCTTTGTG,1.7
16,CAGGCTGCGTTTCAAAGCCAGGACTTTCAG,-1.32
17,TACAGAATTTCTCAGATGCCAGCTAAGATC,-1.31
18,TGCATAGCAGAAACATAGAAAGGAGTACAC,-1.35
19,AAAAACCACAAAAGCCAACAGTACAGCCTT,-1.36
20,TTCCAGTTACTGGAGGCTGGAGCTCCTGGG,-1.31
21,AGGCCCTGCATTAAACAAGAGAGAGTCCAC,2.35
22,AGAGATCATGGCCGATCGACTAGCGAGGCG,-1.27
23,ACTTTCAGAGTAACCATGGGGGCTCAGGGC,-1.24
24,GGCCATTTGGTCTGTAGTGTTGCTCAAGTC,1.31

row,Sequence,binding signal (log2 normalized intensity)
1,TGCTTTTCTAGAACCAGGAATCCTAGGGAA,-1.31
2,TCTAGAAACCAGTGAGAAAATGGTGACCCT,4.13
3,CTAGGAAACTGACCTTTGCTCATGACTATT,6.61
4,GCTGATGCAGAGGGTGCAAAGTTTTTAAAG,1.28
5,TGATTACCCTTATCTTATCTCCTGCTAAAT,-0.759
6,TTTACTTCCTTTTGTTCCTGCTCTAACACT,0.466
7,TGCCATGATAAGCAGTGTGGACTTTTTCCT,3.69
8,ACTGCATGATAGGCCCATCTTCTTATCTGA,0.173
9,GGTCAAGTTCAGATCCTGGCCATGCCCCAG,0.069
10,CCCTCAGAGCTCAGATGAACTTTGCCTTAG,6.28
11,CAAAATCAATAAATCACACGAAACAAGTAG,-1.27
12,GGAAAACCCGGCGCGGACATAAAATTAAAG,-1.33
13,CCATGTGCTATTCTGTCTCCTGGAAAGGTT,1.87
14,GAAGACAAGACAAGGAAGTTAAGAGTTCGA,-1.37
15,TTGCCATTTACATCAAACACTCACTGGGAG,-1.34
16,TGATTGCTGTCTACTCTGGGGGTCAGCAAT,3.23
17,AGCAGAAAATCCAGGTGCAGTGTGAGAGGA,-1.24
18,GTGACTCACCTTTGCTCTGATCTTTGACTT,4.15
19,TCTCTCTTAAGAACGCTTGTGATTACACTG,-1.13
20,CCCCACCCCACCCCACTCCACCTACGCTAC,5.33
21,CAATCCAGAAGGCGCTGAACTTTGCCTTGT,5.04
